Measured values reported in patent US20260365677A1, “NEW CONTRAST AGENTS FOR USE IN DIAGNOSTIC IMAGING” (Bayer Aktiengesellschaft, priority 2022, published 2026).
At least one compound was matched to its structure with a doubt left.

Legend:
[1] = molecular target: T1, OATP1B3 (Homo sapiens, UniProt Q9NPD5); test: Uptake into stable transfected OATP1B3 HEK 293 cells; format: cell-based; details: inhibition of test item uptake by Rifampicine
T1 construct: expressed in transfected cells
T1 sequence (Q9NPD5 1-702): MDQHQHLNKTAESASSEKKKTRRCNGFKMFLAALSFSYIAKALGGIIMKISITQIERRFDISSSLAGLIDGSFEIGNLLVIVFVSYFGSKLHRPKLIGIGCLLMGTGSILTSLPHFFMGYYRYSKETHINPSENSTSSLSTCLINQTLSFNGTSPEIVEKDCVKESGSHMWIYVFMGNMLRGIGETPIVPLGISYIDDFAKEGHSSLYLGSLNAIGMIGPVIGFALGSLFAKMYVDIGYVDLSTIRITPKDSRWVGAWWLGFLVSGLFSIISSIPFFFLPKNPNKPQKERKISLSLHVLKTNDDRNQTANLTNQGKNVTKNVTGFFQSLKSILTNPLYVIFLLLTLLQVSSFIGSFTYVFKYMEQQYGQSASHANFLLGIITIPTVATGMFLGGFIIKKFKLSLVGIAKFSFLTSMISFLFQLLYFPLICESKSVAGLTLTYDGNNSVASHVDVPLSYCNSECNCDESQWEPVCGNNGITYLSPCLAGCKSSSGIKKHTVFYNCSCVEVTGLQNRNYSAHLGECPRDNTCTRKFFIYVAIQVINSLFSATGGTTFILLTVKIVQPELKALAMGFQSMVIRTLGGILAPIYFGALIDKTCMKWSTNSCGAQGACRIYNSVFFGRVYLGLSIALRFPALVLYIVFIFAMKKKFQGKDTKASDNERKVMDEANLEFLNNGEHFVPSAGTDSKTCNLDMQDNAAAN
Protocol: Human transfected OATP1B3 human embryonic kidney 293 cells (OATP1B3 HEK 293, SLCO1B3, Entrez Gene ID: 28234) were used (Leonhardt M et al. Drug Metab Dispos. 2010 July; 38(7):1024-8). The following culture medium was used: 500 mL DMEM (Dulbecco's Modified Eagle Medium—high Glucose, D6429), 50 mL FCS (fetal bovine serum, Fa. Sigma, F7524), 5.8 mL G418 (Geneticin, Fa. Gibco 10131-027) and 5 mL Pen-Strep. (Penicillin-Streptomycin, Fa. Gibco, Ref 15140-122). Cryopreserved cells were shortly thawed in water bath and diluted in 10 mL warm culture medium (37 °C). After medium change the cells were grown for 3d in a 25 cm^2 cell culture flask. After 3 to 5d the cells were transferred into 75 cm^2 flasks. For the splitting of cells these were incubated with 1.5 mL trypsin (Trypsin-EDTA (1×) 0.05%, Ref 25300-054 100 ml, Fa. Gibco) for 3-5 min in the incubator (37 °C, 5% CO2 and 95% oxygen). After centrifugation and washing with medium the cells were counted (50 μL cell suspension and 50 μL trypan blue (Trypan Blue Solution, 93595-50 ml, Fa. Fluka). Cells were cultured (1×10^5 cells/well) in poly-D-lysine coated 24-well plates (Fa. Corning, Ref: 354414) in 1.5 mL medium per well. After 48 hours in the incubator the medium was changed and 1.5 mL/well sodium butyrate containing medium were added (40 mL culture medium plus 400 μL Na-Butyrate, Fa. Sigma Aldrich B5887-5G, 250 mg in 2.27 mL MilliQ water). After 24 hours in the incubator the medium was vacuumed off and 1.5 mL transport buffer was added and incubated for 10 min. The transport buffer contains the following ingredients: 500 mL HBSS (Hank's balanced salt solution, Hyclone, SH30268.01), 5 mL HEPES buffer (4-(2-hydroxyethyl)-1-piperazine-ethanesulfonic acid, Gibco 15630-056) and 3.9 mL glucose (Sigma, G8270-100, 90 g/200 mL MilliQ water). All test items were prepared in transport buffer at a final concentration of 100 μM from stock solutions (180 to 500 mM concentration). The OATP1B3 HEK 293 cells were incubated with test solutions (test item in transport buffer 500 μL) for 40 min on a thermoshaker without shaking (PHMP, Fa. Grant Bio). Triplicates were performed for each test item. After incubation the cells were washed with 2 mL of cold PBS (+) buffer (Dulbeccos PBS+, Fa. Gibco). […] As a reference standard Gd-EOB-DTPA (gadoxetate) is used in the same well plate. The OATP1B3 HEK 293 uptake of the test compound is calculated relative to gadoxetate (resulting in the unit % of RC1).

[2] = Complex stability (transmetallation) with Zn2+ in phosphate buffer; format: physicochemical; details: over 72 hours, 2.5 mM Zn^2+, 26 mM phosphate buffer, 37 °C, pH 7.4; R1n/R10
Protocol: The used method is described elsewhere (Laurent S et al., Stability of MRI paramagnetic contrast media: a proton relaxometric protocol for transmetallation assessment. Invest Radiol. 2001 February; 36(2):115-22). […] If test compounds are instable under these conditions, transmetallation during this test would lead to the formation of the Zn^2+ complex of the test item, while Gd^3+ is released and precipitated as highly insoluble GdPO4.
After 3d of incubation T1 relaxation time was observed.

CCOCCOCCOCCOc1ccc(C[C@H]2CN(CC(=O)[O-])CCN(CC(=O)[O-])CCN(CC(=O)O)CCN2CC(=O)[O-])cc1.[Gd+3] [Example 5, Gadolinium-2,2′,2″-[(2S)-10-(carboxymethyl)-2-(4-{2-[2-(2-ethoxyethoxy)ethoxy]ethoxy}benzyl)-1,4,7,10-tetraazacyclododecane-1,4,7-triyl]triacetate]
Inhibition Rifampicine [1]: 96 % inhibition | Transmetallation stability [2]: 96%

CCCCOc1ccc(C[C@H]2CN(CC(=O)[O-])CCN(CC(=O)[O-])CCN(CC(=O)O)CCN2CC(=O)[O-])cc1.[Gd+3] (single isomer, unassigned; stereoisomer 2) [Example 13]
Inhibition Rifampicine [1]: 98 % inhibition

CCOc1ccc(CC(CN(CCN(CC(=O)[O-])CC(=O)[O-])CC(=O)[O-])N(CC(=O)[O-])CC(=O)[O-])cc1.[Gd+3].[Na+].[Na+] (stereo not shown) [RC1, gadoxetate disodium]
Inhibition Rifampicine [1]: 99 % inhibition | Transmetallation stability [2]: 44%

CCOc1ccc(CC2CN(CC(=O)[O-])CCN(CC(=O)[O-])CCN(CC(=O)O)CCN2CC(=O)[O-])cc1.[Gd+3] (stereo not shown) [Example 7, Gadolinium-2,2′,2″-[10-(carboxymethyl)-2-(4-ethoxybenzyl)-1,4,7,10-tetraazacyclododecane-1,4,7-triyl]triacetate]
Inhibition Rifampicine [1]: 95 % inhibition | Transmetallation stability [2]: 98%

CCOCCOCCOc1ccc(C[C@H]2CN(CC(=O)[O-])CCN(CC(=O)[O-])CCN(CC(=O)O)CCN2CC(=O)[O-])nc1.[Gd+3] [Example 6, Gadolinium 2,2′,2″-[(2S)-10-(carboxymethyl)-2-({5-[2-(2-ethoxyethoxy)ethoxy]pyridin-2-yl}methyl)-1,4,7,10-tetraazacyclododecane-1,4,7-triyl]triacetate]
Inhibition Rifampicine [1]: 65 % inhibition

CCCCOc1ccc(C[C@H]2CN(CC(=O)[O-])CCN(CC(=O)[O-])CCN(CC(=O)O)CCN2CC(=O)[O-])cc1.[Gd+3] (single isomer, unassigned; stereoisomer 1) [Example 12]
Inhibition Rifampicine [1]: 98 % inhibition

CCOc1ccc(CC2CN(CC(=O)[O-])CCN(CC(=O)[O-])CCN(CC(=O)O)CCN2CC(=O)[O-])cc1.[Gd+3] (single isomer, unassigned; diastereomer 2) [Example 9, Gadolinium-2,2′,2″-[10-(carboxymethyl)-2-(4-ethoxybenzyl)-1,4,7,10-tetraazacyclododecane-1,4,7-triyl]triacetate (racemic diastereomer 2)]
Inhibition Rifampicine [1]: 94 % inhibition

CCOc1ccc(C[C@H]2CN(CC(=O)[O-])CCN(CC(=O)[O-])CCN(CC(=O)O)CCN2CC(=O)[O-])cc1.[Gd+3] (single isomer, unassigned; stereoisomer 1) [Example 10]
Inhibition Rifampicine [1]: 96 % inhibition

CCOc1ccc(CC2CN(CC(=O)[O-])CCN(CC(=O)[O-])CCN(CC(=O)O)CCN2CC(=O)[O-])cc1.[Gd+3] (single isomer, unassigned; diastereomer 1) [Example 8, Gadolinium-2,2′,2″-[10-(carboxymethyl)-2-(4-ethoxybenzyl)-1,4,7,10-tetraazacyclododecane-1,4,7-triyl]triacetate (racemic diastereomer 1)]
Inhibition Rifampicine [1]: 99 % inhibition

CCOc1ccc(C[C@H]2CN(CC(=O)[O-])CCN(CC(=O)[O-])CCN(CC(=O)O)CCN2CC(=O)[O-])cc1.[Gd+3] (single isomer, unassigned; stereoisomer 2) [Example 11]
Inhibition Rifampicine [1]: 90 % inhibition
